According to the supplement of paper PMC8728848:
The other results are listed elsewhere or left out.

How the values were obtained:
Assay in all cases: glycan array binding signal (z-score within array); higher = stronger binding
Conditions in all cases: glycan notation: IUPAC condensed, linker removed
GlcNAc(b1-3)GalNAc = molecular target: GlcNAc(b1-3)GalNAc
Summary of the method: (§1)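 Columns mapping to the same glycan were averaged after glycan names were converted to IUPAC-condensed notation. The data come from 3228 arrays in the Consortium for Functional Glycomics database, limited to those with an available protein sequence. Binding is reported as a within-array Z-score averaged across arrays of one protein sequence and across linkers.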

GlcNAc(b1-3)Man = molecular target: GlcNAc(b1-3)Man
Summary of the method: as §1

[1] = molecular target: GlcNAc(b1-3)[GlcNAc(b1-4)][GlcNAc(b1-6)]GlcNAc
Summary of the method: as §1

[2] = molecular target: GlcNAc(b1-3)[GlcNAc(b1-6)]Gal(b1-4)GlcNAc
Summary of the method: as §1

[3] = molecular target: GlcNAc(b1-3)[GlcNAc(b1-6)]GalNAc
Summary of the method: as §1

[4] = molecular target: GlcNAc(b1-4)Gal(b1-4)GlcNAc
Summary of the method: as §1

GlcNAc(b1-4)GlcNAc = molecular target: GlcNAc(b1-4)GlcNAc
Summary of the method: as §1

[5] = molecular target: GlcNAc(b1-4)GlcNAc(b1-4)GlcNAc
Summary of the method: as §1

[6] = molecular target: GlcNAc(b1-4)GlcNAc(b1-4)GlcNAc(b1-4)GlcNAc(b1-4)GlcNAc
Summary of the method: as §1

[7] = molecular target: GlcNAc(b1-4)GlcNAc(b1-4)GlcNAc(b1-4)GlcNAc(b1-4)GlcNAc(b1-4)GlcNAc
Summary of the method: as §1

[8] = molecular target: GlcNAc(b1-4)[GlcNAc(b1-6)]GalNAc
Summary of the method: as §1

[9] = molecular target: GlcNAc(b1-6)Gal(b1-4)GlcNAc
Summary of the method: as §1

GlcNAc(b1-6)GalNAc = molecular target: GlcNAc(b1-6)GalNAc
Summary of the method: as §1

[10] = molecular target: GlcNAc6S(b1-3)Gal(b1-4)GlcNAc
Summary of the method: as §1

Kdn(a2-3)Gal(b1-3)GalNAc = molecular target: Kdn(a2-3)Gal(b1-3)GalNAc
Summary of the method: as §1

Kdn(a2-3)Gal(b1-3)GlcNAc = molecular target: Kdn(a2-3)Gal(b1-3)GlcNAc
Summary of the method: as §1

Kdn(a2-3)Gal(b1-4)Glc = molecular target: Kdn(a2-3)Gal(b1-4)Glc
Summary of the method: as §1

Kdn(a2-3)Gal(b1-4)GlcNAc = molecular target: Kdn(a2-3)Gal(b1-4)GlcNAc
Summary of the method: as §1

[11] = molecular target: Kdn(a2-3)Gal(b1-4)[Fuc(a1-3)]GlcNAc
Summary of the method: as §1

Kdn(a2-6)Gal(b1-4)GlcNAc = molecular target: Kdn(a2-6)Gal(b1-4)GlcNAc
Summary of the method: as §1

[12] = molecular target: Man(a1-2)Man(a1-2)Man(a1-3)Man
Summary of the method: as §1

[13] = molecular target: Man(a1-2)Man(a1-2)Man(a1-6)[Man(a1-3)]Man
Summary of the method: as §1

Man(a1-2)Man(a1-3)Man = molecular target: Man(a1-2)Man(a1-3)Man
Summary of the method: as §1

[14] = molecular target: Man(a1-2)Man(a1-3)[Man(a1-2)Man(a1-6)]Man
Summary of the method: as §1

[15] = molecular target: Man(a1-2)Man(a1-3)[Man(a1-2)Man(a1-6)]Man(a1-6)[Man(a1-2)Man(a1-2)Man(a1-3)]Man
Summary of the method: as §1

[16] = molecular target: Man(a1-2)Man(a1-3)[Man(a1-2)Man(a1-6)]Man(a1-6)[Man(a1-2)Man(a1-2)Man(a1-3)]Man(b1-4)GlcNAc(b1-4)GlcNAc
Summary of the method: as §1

[17] = molecular target: Man(a1-2)Man(a1-3)[Man(a1-6)]Man(a1-6)[Man(a1-2)Man(a1-3)]Man(b1-4)GlcNAc(b1-4)GlcNAc
Summary of the method: as §1

[18] = molecular target: Man(a1-2)Man(a1-6)[Man(a1-3)]Man(a1-6)[Man(a1-2)Man(a1-2)Man(a1-3)]Man
Summary of the method: as §1

[19] = molecular target: Man(a1-2)Man(a1-6)[Man(a1-3)]Man(a1-6)[Man(a1-2)Man(a1-2)Man(a1-3)]Man(b1-4)GlcNAc(b1-4)GlcNAc
Summary of the method: as §1

Man(a1-3)[Man(a1-6)]Man = molecular target: Man(a1-3)[Man(a1-6)]Man
Summary of the method: as §1

[20] = molecular target: Man(a1-3)[Man(a1-6)]Man(a1-6)[Man(a1-2)Man(a1-3)]Man(b1-4)GlcNAc(b1-4)GlcNAc
Summary of the method: as §1

[21] = molecular target: Man(a1-3)[Man(a1-6)]Man(a1-6)[Man(a1-3)]Man
Summary of the method: as §1

[22] = molecular target: Man(a1-3)[Man(a1-6)]Man(a1-6)[Man(a1-3)]Man(b1-4)GlcNAc(b1-4)GlcNAc
Summary of the method: as §1

[23] = molecular target: Man(a1-3)[Man(a1-6)]Man(b1-4)GlcNAc(b1-4)GlcNAc
Summary of the method: as §1

[24] = molecular target: Man(a1-3)[Man(a1-6)]Man(b1-4)GlcNAc(b1-4)[Fuc(a1-6)]GlcNAc
Summary of the method: as §1

Man(a1-6)Man = molecular target: Man(a1-6)Man
Summary of the method: as §1

Man(b1-4)GlcNAc = molecular target: Man(b1-4)GlcNAc
Summary of the method: as §1

MurNAc(b1-4)GlcNAc = molecular target: MurNAc(b1-4)GlcNAc
Summary of the method: as §1

B1: Gal 8 (Mus musculus), Q9JL15 (protein)
chain: MGGSHHHHHHGMASMLSLNNLQNIIYNPIIPYVGTITEQLKPGSLIVIRGHVPKDSERFQVDFQLGNSLKPRADVAFHFNPRFKRSSCIVCNTLTQEKWGWEEITYDMPFRKEKSFEIVFMVLKNKFQVAVNGRHVLLYAHRISPEQIDTVGIYGKVNIHSIGFRFSSASALPHTLGDLQSMETSALGLTQINRENIQKPGKLQLSLPFEARLNASMGPGRTVVIKGEVNTNARSFNVDLVAGKTRDIALHLNPRLNVKAFVRNSFLQDAWGEEERNITCFPFSSGMYFEMIIYCDVREFKVAINGVHSLEYKHRFKDLSSIDTLSVDGDIRLLDVRSW
GlcNAc(b1-3)GalNAc
  glycan array binding signal (z-score): -0.542
GlcNAc(b1-3)Man
  glycan array binding signal (z-score): -0.534
[1]
  glycan array binding signal (z-score): -0.544
[2]
  glycan array binding signal (z-score): -0.541
[3]
  glycan array binding signal (z-score): -0.538
[4]
  glycan array binding signal (z-score): -0.549
GlcNAc(b1-4)GlcNAc
  glycan array binding signal (z-score): -0.541
[5]
  glycan array binding signal (z-score): -0.549
[6]
  glycan array binding signal (z-score): -0.54
[7]
  glycan array binding signal (z-score): -0.54
[8]
  glycan array binding signal (z-score): -0.544
[9]
  glycan array binding signal (z-score): -0.533
GlcNAc(b1-6)GalNAc
  glycan array binding signal (z-score): -0.537
[10]
  glycan array binding signal (z-score): -0.106
Kdn(a2-3)Gal(b1-3)GalNAc
  glycan array binding signal (z-score): -0.209
Kdn(a2-3)Gal(b1-3)GlcNAc
  glycan array binding signal (z-score): -0.098
Kdn(a2-3)Gal(b1-4)Glc
  glycan array binding signal (z-score): -0.377
Kdn(a2-3)Gal(b1-4)GlcNAc
  glycan array binding signal (z-score): -0.52
[11]
  glycan array binding signal (z-score): -0.46
Kdn(a2-6)Gal(b1-4)GlcNAc
  glycan array binding signal (z-score): -0.534
[12]
  glycan array binding signal (z-score): -0.547
[13]
  glycan array binding signal (z-score): -0.539
Man(a1-2)Man(a1-3)Man
  glycan array binding signal (z-score): -0.547
[14]
  glycan array binding signal (z-score): -0.55
[15]
  glycan array binding signal (z-score): -0.543
[16]
  glycan array binding signal (z-score): -0.437
[17]
  glycan array binding signal (z-score): -0.546
[18]
  glycan array binding signal (z-score): -0.533
[19]
  glycan array binding signal (z-score): -0.538
Man(a1-3)[Man(a1-6)]Man
  glycan array binding signal (z-score): -0.535
[20]
  glycan array binding signal (z-score): -0.468
[21]
  glycan array binding signal (z-score): -0.51
[22]
  glycan array binding signal (z-score): -0.525
[23]
  glycan array binding signal (z-score): -0.537
[24]
  glycan array binding signal (z-score): -0.545
Man(a1-6)Man
  glycan array binding signal (z-score): -0.51
Man(b1-4)GlcNAc
  glycan array binding signal (z-score): -0.526
MurNAc(b1-4)GlcNAc
  glycan array binding signal (z-score): -0.542
